The record followed here is the supplement of paper PMC4604168 (melanoma cell lines).

The list shows a part of the results. Many values rest on one well or one pass, so single values are uncertain.
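Further: cell number obtained by counting DAPI-stained nuclei in high-throughput microscope images with image analysis software, screen run in 1,536-well plates.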

This assay has as its system WM1745. The experiment in a line: cell count relative to DMSO control; melanoma cells; higher = more viable cells. The settings on record: library dose: low library concentration; 72 h.
In the case of `Nc1ncn([C@H]2C[C@H](O)[C@@H](CO)O2)c(=O)n1` [decitabine] + CN(C)S(=O)(=O)c1ccc2c(c1)/C(=C/c1cc3c([nH]1)CCCC3)C(=O)N2 [SU6656] (first compound 0.1 µM, partner dose 0.4 µM), the cell count stood at 82.3%.
`CC(=O)O[C@@]12CO[C@@H]1C[C@H](O)[C@@]1(C)C(=O)[C@H](O)C3=C(C)[C@@H](OC(=O)[C@H](O)[C@@H](NC(=O)OC(C)(C)C)c4ccccc4)C[C@@](O)([C@@H](OC(=O)c4ccccc4)[C@H]21)C3(C)C` [Docetaxel] + COc1cc(N2CCC(N3CCN(C)CC3)CC2)ccc1Nc1ncc(Cl)c(Nc2ccccc2S(=O)(=O)C(C)C)n1 [NVP-TAE684] (first compound 0.0001 µM, partner dose 0.08 µM) came in with a cell count of 52.1%.
`Nc1nc(F)nc2c1ncn2[C@@H]1O[C@H](CO)[C@@H](O)[C@@H]1O` [fludarabine] + O=C(Nc1cccc(Cl)c1)Nc1ncc(CCNc2ncnc3ccsc23)s1 [SNS314] (first compound 0.2 µM, partner dose 0.0008 µM): the cell count is 84.5%.
To `CC(=O)O[C@@]12CO[C@@H]1C[C@H](O)[C@@]1(C)C(=O)[C@H](O)C3=C(C)[C@@H](OC(=O)[C@H](O)[C@@H](NC(=O)OC(C)(C)C)c4ccccc4)C[C@@](O)([C@@H](OC(=O)c4ccccc4)[C@H]21)C3(C)C` [Docetaxel] + CC(C)CCN1c2nc(Nc3cc(F)c(O)c(F)c3)ncc2N(C)C(=O)C1C [BID1870] (first compound 0.0001 µM, partner dose 0.2 µM) belongs 53.5%.
